Target: FLAG-tagged RPAP3 (human, UniProt Q9H6T3)
Test: pull-down

binding result: binds
B1: GST-K64A PIH1D1 (natural protein)
chain: not shown

Source: PMC3989777 (Cell Reports, 2014)
